Laboratory results taken from PubChem BioAssay AID1159614 (National Center for Advancing Translational Sciences (NCATS), 2016).
In all, about 45,000 compounds went through this assay and about 65 (0.1%) were called active. Calls follow the shape of the dose curve; as a rule, active = well fitted activation curve with a large enough effect; inconclusive = small, poorly fitted or top-dose-only effect; inactive = no such curve, though single readings can be large or run the other way. The list shows a part of the results.

Each molecule was assayed against Galactocerebrosidase (Homo sapiens) (UniProt P54803) (assay: A Novel Cell-Based Assay to Identify Small Molecules for B -Galactocerebrosidase). Details: 145M-Twi-hGALC-G270D cells (Twitcher mouse brain line with human GALC G270D), HMU-beta-Gal fluorescence, 48 h; series mostly up to 57.5 µM; activation: at the top concentration.
Outline: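 Mutant human GALC (G270D), stably expressed in a Twitcher mouse brain cell line lacking endogenous GALC, is measured in live-treated cells via 6-hexadecanoylamino-4-methylumbelliferyl-β-galactoside hydrolysis (0.1 mM final, pH 5.2) with fluorescent detection.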
Also: 0% is about no effect; nearly all actives have a fitted effect of over 65% in size.

UniProt P54803, sequence (P54803 whole entry, looked up): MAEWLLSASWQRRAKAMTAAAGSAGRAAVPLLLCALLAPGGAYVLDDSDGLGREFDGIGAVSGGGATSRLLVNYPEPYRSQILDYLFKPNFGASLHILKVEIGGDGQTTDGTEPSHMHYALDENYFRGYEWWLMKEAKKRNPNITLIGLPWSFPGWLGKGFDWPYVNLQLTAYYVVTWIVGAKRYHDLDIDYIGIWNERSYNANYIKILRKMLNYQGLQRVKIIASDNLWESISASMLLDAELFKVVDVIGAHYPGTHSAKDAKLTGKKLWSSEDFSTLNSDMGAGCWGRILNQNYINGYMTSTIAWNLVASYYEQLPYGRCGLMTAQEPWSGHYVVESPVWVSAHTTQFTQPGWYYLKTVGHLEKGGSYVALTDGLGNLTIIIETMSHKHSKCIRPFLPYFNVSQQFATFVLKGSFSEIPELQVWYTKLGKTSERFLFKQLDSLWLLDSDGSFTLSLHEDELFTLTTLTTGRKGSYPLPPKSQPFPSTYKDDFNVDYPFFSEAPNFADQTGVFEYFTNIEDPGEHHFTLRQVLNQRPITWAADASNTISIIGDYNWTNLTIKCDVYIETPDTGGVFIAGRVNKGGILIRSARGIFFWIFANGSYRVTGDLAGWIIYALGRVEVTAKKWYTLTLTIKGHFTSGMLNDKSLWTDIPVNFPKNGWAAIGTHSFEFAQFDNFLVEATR

activation, inactive:
COc1ccc(CCNC(=O)c2ccc(CNS(=O)(=O)c3ccccc3)cc2)cc1OC -6.79%
CCOc1cccc2sc(N(CCN(CC)CC)C(=O)c3ccco3)nc12 4.81%
Cc1cccc(CCNC(=O)C2CCCN(S(=O)(=O)c3ccc4c(c3)oc(=O)n4C)C2)c1 (stereo not given) -12.7%
CC(C)(C)OC(=O)N1CCC(c2c(C(=O)N3CCN(C(=O)c4ccco4)CC3)cnn2-c2ccccc2)CC1 -7.76%
CN(Cc1ccccc1)C(=O)c1cn(C)c2ccc(S(=O)(=O)N(C)C3CCCCC3)cc2c1=O -11.9%
CCCS(=O)(=O)c1nc(S(=O)(=O)c2ccc(C)cc2)c(NCc2ccccc2)s1 -0.753%
COc1cc(NC(=O)c2c(C)oc3ncnc(N4CCCCC4)c23)cc(OC)c1 4.7%
CCOc1ccc(NC(=O)CCS(=O)(=O)c2ccc(Br)cc2)cc1 -3.03%
Cc1cc(Br)ccc1NC(=O)C1CCN(S(=O)(=O)c2ccc(Br)s2)CC1 -6.93%
COc1ccc(/C=C(/C#N)c2nc(-c3ccc(Br)cc3)cs2)cc1 13.8%
CCOC(=O)c1ccc(N2C(=O)c3n[nH]c(-c4cccs4)c3C2c2ccc(Cl)cc2Cl)cc1 (stereo not given) -16.9%
CCC(=O)N1CCc2cc(S(=O)(=O)CCC(=O)NCc3cccc(OC)c3)ccc21 -7.06%
Cc1cccc(Cn2c(SCc3ccc(C(=O)NC4CCCCC4)cc3)nc3ccncc32)c1 -4.13%
COc1ccc(NC(=O)c2c(C)oc3ccc(O)c(CN4CCN(Cc5ccccc5)CC4)c23)cc1 -13.5%
Cc1ccc(OC(=O)CSc2nnc(CNC(=O)c3ccccc3)o2)cc1 -19.3%
CC(=O)N1CCCc2cc(S(=O)(=O)N3CCCC(C(=O)N4CCN(c5cc(C)ccc5C)CC4)C3)ccc21 (stereo not given) 4.42%
CCc1ccc(C2=NN(CCC(=O)NCCc3ccc(Cl)cc3)C(=O)CC2)cc1 -18.2%
Cc1ccc(C(=O)COC(=O)CCC(=O)Nc2ccc(Oc3cc(C)ccc3C(C)C)cc2)cc1 -7.19%
Cc1ccc2c(c1)-c1c(cnn1CC(=O)Nc1ccccc1C#N)CO2 -5.88%
Cc1c(C(=O)NCCN(C)C)sc2nc3n(c(=O)c12)CCC3 -12.8%
CCOC(=O)c1nnc2c(-c3ccc(Cl)cc3)c(C)nn2c1C 1.32%
C[C@@H]1C[C@H]2[C@@H]3C[C@H](F)C4=CC(=O)C(Cl)=C[C@]4(C)[C@@]3(F)[C@@H](O)C[C@]2(C)[C@@]1(O)C(=O)CO -10.2%
O=C(NCC(c1ccccc1)c1ccccc1)c1nn(-c2ccccc2F)nc1CO -9.49%
CCCn1c2ccccc2c2cnn(CC(=O)NC(CCSC)C(=O)OC)c(=O)c21 (stereo not given) -10.5%
Cc1ccc(CCNC(=O)CCSCc2ccccc2Cl)cc1 6.7%
CCCN(CCC)C(=O)c1cc2c(=O)n3cccc(C)c3nc2n1C -2.16%
Cc1ccc(NC(=O)c2nc(S(C)(=O)=O)ncc2N(Cc2ccco2)Cc2ccco2)cc1C -25.8%
CN(Cc1ccco1)S(=O)(=O)c1nnc(NC(=O)c2cccc(Cl)c2)s1 -28.1%
CC(C)C(NS(=O)(=O)c1ccc2c(c1)oc(=O)n2C)C(=O)NCCc1ccc(Cl)cc1 (stereo not given) -12.9%
CCOc1ccc(Nc2c(S(=O)(=O)c3ccccc3)cnc3ccccc23)cc1 -11.4%
Cc1ccc(NC(=O)Cn2c(=O)oc3cc(S(=O)(=O)N4CCCCCC4)ccc32)cc1Cl -13.3%
Cc1ccc2cccc(NC(=O)c3ccc(-c4cccc(Cl)c4)o3)c2n1 -23%
COCCNC(=O)CSc1nc(-c2ccccc2C)nc2c1c(=O)n(C)c(=O)n2C -6.14%
COc1ccc(CCC(=O)NCCc2csc(-c3ccc(Cl)cc3)n2)cc1 -14.3%
NS(=O)(=O)c1ccc2nc(NC(=O)COc3ccccc3)sc2c1 -4.69%
Cc1ccc(-c2nnc(Nc3ccc(S(N)(=O)=O)cc3)c3ccccc23)cc1S(=O)(=O)N1CCCCC1 -13.7%
CN(C)c1ccc(C(CNC(=O)c2c(F)cccc2Cl)N2CCOCC2)cc1 (stereo not given) -9.65%
CC(C)(Oc1ccc(Cl)cc1)C(=O)Nc1nc2ccc(S(C)(=O)=O)cc2s1 -13%
CCOCCCNC(=O)C(c1ccc(Cl)cc1)N(Cc1cccs1)C(=O)c1ccc(NC(C)=O)cc1 (stereo not given) 0.0856%
Cc1ccc(NC(=O)CN2C(=O)C3(SCC(=O)N3c3ccc(F)c(F)c3)c3ccccc32)c(C)c1 (stereo not given) -21.4%
CCC(=O)N1CCc2cc(Br)cc(S(=O)(=O)CCC(=O)N(CC)Cc3ccccc3)c21 -7.25%
CCOc1ccc(OCC)c(NS(=O)(=O)c2cc(-c3onc(C)c3C)ccc2OC)c1 -8.83%
CN1C(=O)C2(SCC(=O)N2c2ccc(F)cc2)c2ccccc21 (stereo not given) -22.7%
COc1cc(OC)cc(C(=O)Nc2ccc3oc(-c4cccc5c(Br)cccc45)nc3c2)c1 -4.87%
CC(=O)N1CCc2cc(CNS(=O)(=O)c3ccc(Cl)s3)ccc21 -9.12%
COc1ccc(-n2c(=O)c3c4c(sc3n3c(SCCC(C)C)nnc23)COC(C(C)C)C4)cc1 (stereo not given) -18.1%
COc1ccc(Cl)cc1NC(=O)NCC1CCN(Cc2ccccc2F)CC1 -6.42%
COc1ccc(N2CCN(C(=O)c3cc(S(=O)(=O)N4CCC(C)CC4)cn3C)CC2)cc1 0.54%
CCN1CCN(CCCNC(=O)c2ccc3nc(Cc4ccccc4)oc3c2)CC1 -12.9%
O=C(c1ccc(F)cc1)n1nc(-c2ccccc2)nc1NCc1ccco1 -15.4%
O=C(NC1CCCCC1)c1ccc2c(c1)N(Cc1ccc(Cl)cc1)C(=O)c1ccccc1S2=O (stereo not given) -8.4%
CCn1cc(C(=O)NCCc2ccc(Cl)cc2)c(=O)c2cc(S(=O)(=O)N3CCC(C)CC3)ccc21 -13.1%
CCOc1ccccc1N(CC)C(=O)c1noc2c1COc1ccc(C)cc1-2 -7.89%
COc1ccc(N(CC(=O)N2CCN(c3ccccc3F)CC2)S(=O)(=O)c2c(C)n[nH]c2C)cc1 0.488%
Cc1cccc(NC(=O)CCNS(=O)(=O)c2cccc3nsnc23)c1C 2.08%
CCN(C(=O)C1CCN(c2ncnc3c2nc2n3CCCCC2)CC1)c1cccc(Cl)c1 -7.92%
COc1ccc(-n2ccnc(NCc3ccc(C)cc3)c2=O)cc1OC -10.4%
O=C(NCC(c1ccc2c(c1)OCO2)N1CCOCC1)c1c(F)cccc1F (stereo not given) -13.2%
Cc1cccc(N2CCN(c3nc4ccc(C)cc4n4cnnc34)CC2C)c1 (stereo not given) -15%
CCn1c(C)c(C)c2cc(C(=O)NCc3cccc(C)c3)ccc21 -5.7%
Cc1cccc(C(=O)Nc2ccc(C(=O)OCc3cc(=O)n4nc(CC(C)C)sc4n3)cc2)c1 -21.9%
O=C(c1ccccc1)N(Cc1ccco1)Cc1cccs1 -16%
COc1ccc(NC(=O)/C=C\C(=O)N(c2ccc(C(C)C)cc2)C(C(=O)NCc2ccco2)c2ccc(F)cc2)cc1 (stereo not given) -8.78%
Cc1ccc(C)c(Cn2c(=O)cc(C)c3c(C)nn(C)c32)c1 -6.97%
COc1ccccc1NC(=O)c1sc2nc(C)c(C(=O)Nc3ccc(C)cc3C)c(-c3ccc(C)o3)c2c1N -13.4%
Cc1ccc(-n2ncc3c(N4CCN(C)CC4)ncnc32)cc1C -17.1%
COc1cccc(CNC(=O)CCc2c(C)c3cc4c(C)coc4c(C)c3oc2=O)c1 -13.4%
CCc1ccccc1NC(=O)CCS(=O)(=O)c1cccc2nonc12 -11.6%
COc1ccc(OCC(=O)N2CCN(C(=O)c3cccc(OC)c3)CC2)cc1 -6.39%
O=C(CSc1nc(-c2ccc(F)cc2)cc(C(F)(F)F)n1)NCCc1ccccc1 -1.6%
COc1ccc(OC)c(C2NC(=O)NC(C)=C2C(=O)Nc2ccc(F)cc2)c1 (stereo not given) -4.85%
O=C(CSc1cn(CC(=O)N2CCCCC2)c2ccccc12)Nc1ccc(C(F)(F)F)cc1 -10.7%
COc1cccc(N2CCN(S(=O)(=O)c3ccc(-c4ccno4)cc3OC)CC2)c1 -7.69%
Cc1ccc(NC(=O)CSc2nc(-c3ccccc3Cl)nc3cc(=O)[nH]n23)c(C)c1 -29.1%
Cc1ccc(C(c2sc3nc(-c4ccco4)nn3c2O)N2CCC3(CC2)OCCO3)cc1 (stereo not given) -3.94%
COC(=O)c1c(C)nn(-c2ccc(F)cc2)c1-n1cccc1 -11.8%
CCc1cccc(Nc2ncnc3onc(-c4ccc(F)cc4)c23)c1 -18.7%
Cc1ccc(C(=O)NCc2ccc(F)cc2)cc1NC(=O)c1nsc2ccccc12 -15.6%
CCN(CC)CCNC(=O)c1sc2ncccc2c1-n1cccc1 -19%
COc1cccc(N2CCN(C(=O)c3ccc(NC(=O)c4nsc5ccccc45)cc3)CC2)c1 -9.12%
O=C(NCC(O)CO)c1c(I)c(C(=O)NCC(O)CO)c(I)c(N(CCO)C(=O)CO)c1I (stereo not given) -20.8%
COc1ccc(NC(=O)c2ccco2)cc1NC(=O)COc1ccc(Cl)cc1C -1.42%
O=C(Nc1ccc2nc(SCC(=O)N3CCc4ccccc43)sc2c1)c1ccccc1F -12.5%
COc1ccc(CNC(=O)CCc2nc(-c3ccc(C)cc3)no2)c(OC)c1 -35.6%
CC1=C(c2ccc(C)c(C)c2)S(=O)(=O)N=C1N1CCC(C(=O)NC(C)Cc2ccco2)CC1 (stereo not given) -13.5%
Cc1cc(C)cc(-n2c(SCC(=O)Nc3ccc4c(c3)OCCO4)nc3c([nH]c4ccccc43)c2=O)c1 -12.1%
Cn1cc(S(=O)(=O)c2ccccc2)c(=O)c2cc(F)c(N3CCCCCC3)cc21 0.795%
Cc1ccc(NC(=O)c2ccc(NC(=O)N3CCSc4ncccc43)cc2)c(C)c1 -3.39%
COc1ccc(C)cc1-n1cnc2cc(C(=O)NC3CCCC3)ccc21 -16.4%
COc1cc(C(=O)Nc2nonc2-c2ccc(C)c(C)c2)cc(OC)c1OC -16.6%
CCOC(=O)c1c(C)oc2nc(C)nc(NCc3ccccc3OC)c12 -17.6%
COC(=O)C(c1ccccc1Cl)N1CCc2sccc2C1 (stereo not given) -16.9%
COc1ccccc1NC(=O)Cn1c(=O)n(CCCCCC(=O)NCc2ccccc2)c(=O)c2sccc21 -18.5%
Cc1ccccc1Nc1c(-c2cccs2)nc2cccc(C)n12 -7.89%
O=C(NCC1CN(c2ccc(N3CCOCC3=O)cc2)C(=O)O1)c1ccc(Cl)s1 (stereo not given) -11.9%
